Consider 84 variants from the RNAGym collection of RNA variant scans (doi:10.1073/pnas.2313332121).

First the molecules themselves.
B1: TPR 5TU (parent)
chain: GGAUCUUCUCGAUCUAACAAAAAAGACAAAUCUGCCACAAAGCUUGAGAGCAUCUUCGGAUGCAGAGGCGGCAGCCUUCGGUGGCGCGAUAGCGCCAACGUUCUCAACUAUGACACGCAAAACGCGUGCUCCGUUGAAUGGAGUUUAUCAUG

This sample is rich in variants without activity. Bounds are passed on as bounds.

The series covers variants of B1. Nature of the series: polymerase ribozyme fitness, log enrichment relative to wild type (log ratio); higher = more active; in vitro selection for triplet polymerase activity. The method, boiled down:
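Mutant libraries for each subunit of a heterodimeric triplet polymerase ribozyme were made by PCR and then transcribed. Each library underwent one round of in vitro selection in triplicate: annealing with a biotinylated primer, the partner subunit and triplets, frozen incubation at −7 °C, gel excision of extended constructs, streptavidin-bead capture and RT-PCR. Input and output libraries were Illumina-sequenced, and only genotypes with ≥10 input reads and ≥1 read per output were kept. Fitness is the logarithm, base 2, of genotype enrichment over wild-type enrichment, computed from inverse-variance-weighted replicate averages.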
In the case of C10A C18A A22U A29G A41U U45G G50U C57U G74A G88C A106U, the “polymerase ribozyme fitness (log ratio)” value was at most -4.2. As to C10A G124A, the “polymerase ribozyme fitness (log ratio)” value is at most -4.2. As to C10G A19U G46A C54G G84A C95U C105U C123A, the “polymerase ribozyme fitness (log ratio)” value is at most -4.2. For C10G A24U A29C G50C G80C G94U G124A, the “polymerase ribozyme fitness (log ratio)” value was at most -4.2. Under C10A G50C U53C A73G C85A C87G stands at most -4.2. Under C10G A21G A40U C85G stands at most -4.2; under C10A A26U A52C C54U A66G A89G C95U, at most -4.2. Consider C10G A12G C27G A49G G62C G67A G68U C93U, for which the “polymerase ribozyme fitness (log ratio)” value is at most -4.2. The result for C10G A16G U56A G59U C87A reads at most -4.2; that for U9G U44G G50A C76A G83A C87U A106G, at most -4.2. Under C10A A29U C93G stands at most -4.2; under C10A U13G A17U A41G G50C G100U U145A, at most -4.2.

Consider U9G U55C C69G C85A A142C, for which the “polymerase ribozyme fitness (log ratio)” value is at most -4.2.

For the variant C10A A20C C35A A41U G59C C96G C123U, the “polymerase ribozyme fitness (log ratio)” value is at most -4.2. The result for C10A A23G A28U C54U C87U C105U C149G reads at most -4.2; that for C10A C38U G68C C87U C105U A115G G140A, at most -4.2.

C10A A24C C57A C93A C95U C103G: the “polymerase ribozyme fitness (log ratio)” value was at most -4.2. Under C10G A16U G143C stands at most -4.2; under C10G A16C C54G C76G A89U C93A A113G C116U, at most -4.2. The result for C10A C32G U55G C72U C95G C96A A142G reads at most -4.2; that for C10A U55G G83U A91C G136A, at most -4.2; that for C10A G11U G50A U148G, at most -4.2. Under C10A A12C G92A C116G stands at most -4.2. Regarding C10A A30U A49C U77C C87U G152U, the “polymerase ribozyme fitness (log ratio)” value was at most -4.2. Under C10G A16U A97U C105U A142U A147U stands at most -4.2; under C10A A91U U101G, -4.05. Regarding C10G A16U A17C A41C A106G, the “polymerase ribozyme fitness (log ratio)” value is at most -4.2. Under U9G U31C A40G G50A G83A G86U G133C A142U G152U stands at most -4.2. Take C10A A37U C79A C85U C87A: the “polymerase ribozyme fitness (log ratio)” value is at most -4.2. Regarding C10A A52C G74A C85A G143U, the “polymerase ribozyme fitness (log ratio)” value was at most -4.2.

Take C10A A17G A22U A24C U44A U53A C79A C87U C93A C95U A97C: the “polymerase ribozyme fitness (log ratio)” value is at most -4.2. Under C10A A21C G34A G68U U77C G92A U127C U135G stands at most -4.2; under C10G A17C C27G A28C U31A G94A C125A A138U, at most -4.2. The result for C10A C32A A91G C103G reads at most -4.2. The result for C10A A21U C85U C87A C105U A106U C132U reads at most -4.2. For the variant C10A A17C A39C G58A C85A C95A A142C, the “polymerase ribozyme fitness (log ratio)” value was at most -4.2. For C10A U13C C43U G65C C96A G117A A121G G141C, the “polymerase ribozyme fitness (log ratio)” value is at most -4.2. The result for C10A U44A G88C A89G A115C G140U A142G reads at most -4.2; that for U9G U53A G70C G86C A122U C125U, at most -4.2.

Turning to C10A A17G C38U C87U C103G C116G C149G, the “polymerase ribozyme fitness (log ratio)” value was at most -4.2.

For C10A C14G U15C C93A C95U U109G A119G C131A, the “polymerase ribozyme fitness (log ratio)” value is at most -4.2. Under C10G A20C C36A U53A U134A A142U stands at most -4.2. Under C10A G42U A60U C75G C93U A98C U104G U144G stands at most -4.2. Under C10A U45A A98G C123U G140A U144A A150G stands at most -4.2. For C10A G58C A66U G80A C95U C96U U144G, the “polymerase ribozyme fitness (log ratio)” value is at most -4.2. The result for C10A A20U G62U reads at most -4.2; that for C10A U13G A28U A40G U55G U77A C85G A120C, at most -4.2. C10A G11C A26G U55A G59C G81U G88A C118U A121U G126U G133C G141U U148A: the “polymerase ribozyme fitness (log ratio)” value was at most -4.2. As for C10A A17G A30U A37G A41U G86A G141U U144A, the “polymerase ribozyme fitness (log ratio)” value was at most -4.2. Under C10A G92C C103A U111A stands at most -4.2. Consider C10G A16G A21G U53C G70A A115U G133A, for which the “polymerase ribozyme fitness (log ratio)” value is at most -4.2. Under C10A U15G A17G C75G C99U A113C G133C U134G G141C stands at most -4.2. Under C10G A17G A26G C54G G65C G84U G141A C149A stands at most -4.2; under C10A U44G U56G C57U A66C C87U A106G A142U, at most -4.2.

Take C10A C54G G80C G81A C85U C129A U135C: the “polymerase ribozyme fitness (log ratio)” value is at most -4.2. Under U9G U33G G86A C103G stands at most -4.2. Under C10G A19U G83A C85A A97C U109C stands at most -4.2. On to C10A A16C A19U A22U A29U C54U G58C C75A U78A A91C C103U C105U, for which the “polymerase ribozyme fitness (log ratio)” value is at most -4.2.

With C10A A12U U77A C79U G80C C85A G117U C118G U127G G152A, the “polymerase ribozyme fitness (log ratio)” value was at most -4.2. The result for C10A C36A C43U G86A C105G G141C reads at most -4.2; that for C10G A24U G48C C54U G83A C132G G133C, at most -4.2. For the variant U9G U44A, the “polymerase ribozyme fitness (log ratio)” value was at most -4.2. As to C10A A60G C93G, the “polymerase ribozyme fitness (log ratio)” value was at most -4.2. Turning to C10A A47U A49C G68A U78C A91G C95A U148C, the “polymerase ribozyme fitness (log ratio)” value is at most -4.2. The result for C10A U44A G50A G80C G83U C132G reads at most -4.2; that for U9G U15C A19U C35G A113U C132U, at most -4.2; that for C10A A20G A97G A115G C131G G143C, at most -4.2. Under C10A G59A A91U U111A U127C A138U A150G stands at most -4.2; under C10A A17C G34A A91C U102G G140U, -3.67; under U9G U33A C36A C63U C79G C118A U135A, at most -4.2. The result for U9G U55A C95U U104G U134A U139C U151G reads at most -4.2; that for C10A A16U C36U C75A C96U, at most -4.2; that for C10A C118U U130G, at most -4.2.

For the variant C10A C76G A138C, the “polymerase ribozyme fitness (log ratio)” value is at most -4.2. Under C10A A49C G84U A122G U139A stands at most -4.2; under C10A G88C U104G G128A A137U A138G G140U, at most -4.2; under U9G G86C, at most -4.2.

Turning to C10A A21U A40U G83A C125A, the “polymerase ribozyme fitness (log ratio)” value was at most -4.2. The result for C10A A19G G88U C114G C132A reads at most -4.2; that for C10A C54U G67C C85A A107U, at most -4.2. The result for U9G U53A G84C A115G reads at most -4.2; that for C10A C93G, at most -4.2; that for C10G A23C C76U C87U, at most -4.2.

For C10A A17C A41G C54G U55A C85U C95U U104G G126U A138G G152U, the “polymerase ribozyme fitness (log ratio)” value is at most -4.2.
